According to a compilation of properties of binary mixtures (doi:10.1021/je3004904):
Some of these densities may be calculated back from excess volumes.

Assay: xn = mol fraction of the nth substance listed
Conditions: 101 kPa

[Cl][Al]([Cl])[Cl] + CCCC[n+]1ccn(C)c1.[Cl-]
Conditions	mass density [kg/m3]
293.15 K, x1 = 0.5	1242.2
293.15 K, x1 = 0.5238	1254.1
293.15 K, x1 = 0.545	1265.9
293.15 K, x1 = 0.5454	1265.5
293.15 K, x1 = 0.5653	1276.8
293.15 K, x1 = 0.583	1287.8
293.15 K, x1 = 0.5834	1287.6
293.15 K, x1 = 0.6001	1297.8
293.15 K, x1 = 0.615	1307.9
293.15 K, x1 = 0.6154	1307.4
293.15 K, x1 = 0.6296	1316.5
293.15 K, x1 = 0.6429	1325.1
293.15 K, x1 = 0.6551	1333.2
293.15 K, x1 = 0.6667	1340.9
298.15 K, x1 = 0.583	1283.6
298.15 K, x1 = 0.615	1303.6
298.15 K, x1 = 0.643	1322.5
298.15 K, x1 = 0.667	1336.3
303.15 K, x1 = 0.5	1234.4
303.15 K, x1 = 0.545	1257.7
303.15 K, x1 = 0.5454	1257.4
303.15 K, x1 = 0.583	1279.4
303.15 K, x1 = 0.5834	1279.1
303.15 K, x1 = 0.6001	1289.3
303.15 K, x1 = 0.615	1299.3
303.15 K, x1 = 0.6154	1298.7
303.15 K, x1 = 0.6296	1307.7
303.15 K, x1 = 0.6551	1324.2
303.15 K, x1 = 0.6667	1331.8
308.15 K, x1 = 0.545	1253.7
308.15 K, x1 = 0.583	1275.2
308.15 K, x1 = 0.643	1313.6
308.15 K, x1 = 0.667	1327.3
313.15 K, x1 = 0.5	1226.6
313.15 K, x1 = 0.5238	1238.1
313.15 K, x1 = 0.545	1249.6
313.15 K, x1 = 0.5653	1260.3
313.15 K, x1 = 0.583	1271.1
313.15 K, x1 = 0.5834	1270.8
313.15 K, x1 = 0.6001	1280.8
313.15 K, x1 = 0.615	1290.8
313.15 K, x1 = 0.6296	1299.1
313.15 K, x1 = 0.6429	1307.5
313.15 K, x1 = 0.643	1309.3
313.15 K, x1 = 0.6551	1315.3
313.15 K, x1 = 0.6667	1322.9
313.15 K, x1 = 0.667	1322.9
318.15 K, x1 = 0.545	1245.6
318.15 K, x1 = 0.583	1267
318.15 K, x1 = 0.615	1286.5
318.15 K, x1 = 0.643	1304.9
323.15 K, x1 = 0.5238	1230.2
323.15 K, x1 = 0.545	1241.6
323.15 K, x1 = 0.5653	1252.2
323.15 K, x1 = 0.583	1262.9
323.15 K, x1 = 0.5834	1262.5
323.15 K, x1 = 0.6001	1272.4
323.15 K, x1 = 0.615	1282.3
323.15 K, x1 = 0.6154	1281.7
323.15 K, x1 = 0.6429	1298.8
323.15 K, x1 = 0.643	1300.5
323.15 K, x1 = 0.6551	1306.5
323.15 K, x1 = 0.6667	1314
323.15 K, x1 = 0.667	1314
328.15 K, x1 = 0.545	1237.6
328.15 K, x1 = 0.583	1258.8
328.15 K, x1 = 0.615	1278
328.15 K, x1 = 0.667	1309.6
333.15 K, x1 = 0.5	1211.3
333.15 K, x1 = 0.545	1233.7
333.15 K, x1 = 0.5454	1233.3
333.15 K, x1 = 0.5653	1244.1
333.15 K, x1 = 0.583	1254.7
333.15 K, x1 = 0.5834	1254.3
333.15 K, x1 = 0.6154	1273.3
333.15 K, x1 = 0.6429	1290.2
333.15 K, x1 = 0.643	1291.9
333.15 K, x1 = 0.6551	1297.8
333.15 K, x1 = 0.6667	1305.2
333.15 K, x1 = 0.667	1305.2
338.15 K, x1 = 0.545	1229.7
338.15 K, x1 = 0.583	1250.6
338.15 K, x1 = 0.615	1269.5
338.15 K, x1 = 0.643	1287.6
338.15 K, x1 = 0.667	1300.8
343.15 K, x1 = 0.5	1203.7
343.15 K, x1 = 0.5238	1214.6
343.15 K, x1 = 0.545	1225.8
343.15 K, x1 = 0.5653	1236
343.15 K, x1 = 0.583	1246.5
343.15 K, x1 = 0.6001	1255.8
343.15 K, x1 = 0.615	1265.2
343.15 K, x1 = 0.6154	1264.9
343.15 K, x1 = 0.6296	1273.4
343.15 K, x1 = 0.643	1283.2
343.15 K, x1 = 0.6551	1289.2
343.15 K, x1 = 0.6667	1296.5
343.15 K, x1 = 0.667	1296.5

Cn1cc[nH+]c1.[Cl-] + Cl[Al](Cl)Cl
mass density [kg/m3]
Conditions	x2 = 0.643	x2 = 0.667
293.15 K	1487.1	1495.2
298.15 K	1482.3	1490.3
303.15 K	1477.5	–
308.15 K	1472.8	1480.9
313.15 K	–	1476.2
318.15 K	1463.3	1471.5
323.15 K	1458.6	1466.8
328.15 K	1453.9	1462.1
333.15 K	1449.3	1457.4
338.15 K	1444.6	1452.7
343.15 K	1440	1448.1
